# Experimental data published in the supplement of paper PMC4166925.
# ± gives the standard deviation of the averaged measurements. Over roughly 33,000 sequences, “E-score (dimensionless, -0.5 to 0.5)” has its median near -0.049; the highest 2% begin near 0.37. The list shows a part of the results.
# Test system: T1, PmTbr T-box DNA-binding domain (GST fusion)
# T1 sequence: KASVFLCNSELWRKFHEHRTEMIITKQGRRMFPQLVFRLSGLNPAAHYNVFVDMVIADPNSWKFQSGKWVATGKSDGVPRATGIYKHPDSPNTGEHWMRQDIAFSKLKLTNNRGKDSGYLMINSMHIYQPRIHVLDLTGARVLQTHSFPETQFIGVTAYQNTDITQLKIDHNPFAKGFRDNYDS
# Assay: PBM E-score of 8-mer (E-score (dimensionless, -0.5 to 0.5)); Tbr is Tbrain of the sea star Patiria miniata (Pm) or the sea urchin Strongylocentrotus purpuratus (Sp); higher = stronger binding preference; most listed sequences are background and not binding sites
# Conditions: the construct has about 5 more residues each side
# In short: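 Universal Agilent oligonucleotide arrays, made double-stranded by primer extension, were incubated with 200 nM GST-fused Tbr T-box DNA-binding domain in PBS (pH 7.5). The protein was expressed in BL21 E. coli at 20 °C and purified by glutathione affinity chromatography. After scanning and quantification, the Universal PBM Analysis Suite assigned an enrichment E-score to each ungapped 8-mer, averaged over duplicate arrays.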
row,Sequence,PBM E-score of 8-mer
1,ACGAGGTG,0.4446 ± 0.0042
2,AGTCACTA,0.124 ± 0.006
3,TCACATAA,0.15 ± 0.038
4,ACAATGTA,0.021 ± 0.066
5,ATCGTTAC,0.0317 ± 0.02
6,GCCCGAGC,-0.269 ± 0.14
7,GAGAGTAA,0.105 ± 0.0077
8,ATAGGTTG,-0.0124 ± 0.03
9,ACCACGCT,-0.0719 ± 0.13
10,CTTTGTTC,-0.135 ± 0.068
11,AATACGGA,-0.11 ± 0.055
12,GGCGCCTA,0.0892 ± 0.039
13,AACGAGAG,-0.1 ± 0.057
14,TAGAGCTA,-0.124 ± 0.069
15,ATGGTACG,-0.157 ± 0.1
16,GGTCTCAC,0.335 ± 0.0073
17,AGATTAAT,-0.0305 ± 0.072
18,CCCACGGA,-0.345 ± 0.0061
19,AAGGGTGT,0.399 ± 0.018
20,AATTCGTG,-0.0689 ± 0.12
21,ATGCACAC,0.08762 ± 0.00051
22,CAAAGCGA,-0.111 ± 0.051
23,CCTTGCTC,-0.013 ± 0.013
24,CATGATAG,-0.167 ± 0.002
25,CGAACTTC,-0.0508 ± 0.016

row,Sequence,PBM E-score of 8-mer
1,CTAAGCGC,-0.0519 ± 0.026
2,CAGCCTGC,0.00534 ± 0.055
3,AAGGACGG,-0.3 ± 0.026
4,ACAAGCAA,0.0186 ± 0.025
5,CCGTTCCG,-0.175 ± 0.008
6,CGATGTAC,-0.063 ± 0.057
7,AGACCCAG,-0.0972 ± 0.0069
8,GTCTACAA,-0.0649 ± 0.092
9,ACCCGCCA,0.263 ± 0.047
10,ACCCCAGA,-0.0903 ± 0.012
11,AGCTGCCG,0.0115 ± 0.018
12,GAATAATC,-0.244 ± 0.06
13,CTCGGACC,-0.18 ± 0.019
14,CAGATTAA,-0.0974 ± 0.025
15,AACCGTAA,-0.205 ± 0.0074
16,GTCTGAAA,-0.0222 ± 0.05
17,AAGCCAGG,-0.1694 ± 0.00068
18,ATCCCCGC,-0.0244 ± 0.024
19,GATTATAC,-0.0102 ± 0.031
20,ATAGGTGA,0.345 ± 0.028
21,CTACTCGC,0.212 ± 0.026
22,TGCTGCAA,0.00697 ± 0.029
23,CCGACCAG,-0.197 ± 0.015
24,CAGAGCAA,-0.279 ± 0.037
25,CCGGAACC,-0.294 ± 0.0062

row,Sequence,PBM E-score of 8-mer
1,CTGGTGCA,-0.156 ± 0.026
2,CATGACTC,-0.181 ± 0.016
3,TGGCGGAA,-0.0225 ± 0.014
4,TCCCCCAA,-0.0479 ± 0.0075
5,CTGTGATC,0.196 ± 0.071
6,ACCGGAAA,-0.089 ± 0.0078
7,GGATTTAA,-0.261 ± 0.065
8,AAATCTAT,-0.164 ± 0.048
9,GCCCATAC,-0.085 ± 0.0041
10,CTTTAATC,0.0508 ± 0.018
11,GACTGTCA,0.128 ± 0.015
12,CAAGGGAA,-0.27 ± 0.084
13,TATAGCAA,-0.0376 ± 0.033
14,CAGAAGTC,0.0457 ± 0.073
15,GTCTTAAA,-0.119 ± 0.015
16,ACCGCGCC,-0.0519 ± 0.077
17,AGTGAACC,-0.209 ± 0.0099
18,CACGAAAG,-0.0822 ± 0.001
19,CATACGTC,-0.199 ± 0.017
20,ATAATCTA,-0.0549 ± 0.025
21,GGCGTCCC,-0.289 ± 0.075
22,CGCCCTAA,0.0849 ± 0.0056
23,CAGCCAGC,-0.171 ± 0.0073
24,ATAAGACC,-0.00427 ± 0.0084
25,ACCGGCCT,-0.113 ± 0.083

row,Sequence,PBM E-score of 8-mer
1,CGCCGGAA,0.11 ± 0.03
2,AACCTTGA,0.0631 ± 0.055
3,GACACCAA,0.345 ± 0.0047
4,CTGTCCCC,-0.125 ± 0.058
5,GGTCTGAC,-0.028 ± 0.0057
6,CTGTCCAA,0.0281 ± 0.015
7,CTTACTTC,0.108 ± 0.042
8,CGAAAGTA,0.0451 ± 0.011
9,GGGCGCCA,0.106 ± 0.037
10,CCACCCTA,0.0728 ± 0.0043
11,GACTCGGA,-0.0623 ± 0.05
12,CCATTTCG,0.142 ± 0.013
13,CCGATTAG,-0.0218 ± 0.091
14,AACATAAC,0.0694 ± 0.022
15,CCATTTAG,0.0961 ± 0.098
16,ATCCTGGG,-0.241 ± 0.038
17,TCTTGTAA,-0.0426 ± 0.056
18,CACCTGGA,0.366 ± 0.025
19,CTCGGTTA,-0.127 ± 0.016
20,ACGGAAGG,0.0668 ± 0.038
21,CTATCAAA,-0.0263 ± 0.041
22,TCAAGCCA,-0.0989 ± 0.067
23,CTCCGGGC,-0.166 ± 0.032
24,CCCCGAGC,-0.011 ± 0.026
25,AGATGCTG,-0.149 ± 0.035

row,Sequence,PBM E-score of 8-mer
1,GAAAGGTA,-0.0552 ± 0.022
2,GCGTGCCC,-0.343 ± 0.035
3,CCTACGAG,-0.0896 ± 0.0048
4,CCTAGAGA,-0.0665 ± 0.085
5,GCAGCTGC,-0.0758 ± 0.015
6,TCGGCGCA,-0.241 ± 0.034
7,AAAAACCC,-0.0589 ± 0.081
8,CTAGTGTA,0.0738 ± 0.061
9,GATGCTCC,-0.157 ± 0.044
10,GTTTCATA,-0.259 ± 0.04
11,CGCAACGA,-0.0323 ± 0.071
12,ATTTCAGA,-0.159 ± 0.017
13,AACTTCGG,-0.0335 ± 0.087
14,TTCGGCAA,0.0917 ± 0.035
15,CAGATGCG,-0.135 ± 0.048
16,CTCAAAAA,0.132 ± 0.093
17,AAACTAGG,-0.128 ± 0.11
18,GTTGAACA,-0.0347 ± 0.1
19,GGTCCCCA,-0.0432 ± 0.058
20,CGTTCCAA,0.0337 ± 0.021
21,TAAGAAAA,-0.169 ± 0.12
22,GCCCGTAC,-0.227 ± 0.068
23,CCACAAAC,0.0201 ± 0.024
24,AGCCCTCA,-0.0517 ± 0.014
25,GGTCTGCA,-0.153 ± 0.067

row,Sequence,PBM E-score of 8-mer
1,CGCTACGC,0.15 ± 0.055
2,ACGCTCAT,-0.0967 ± 0.08
3,ATTTCGGG,0.0944 ± 0.047
4,AAAGGGAC,-0.17 ± 0.05
5,ACTGGTAT,-0.0656 ± 0.043
6,ACTCGACA,0.248 ± 0.0043
7,CTTTATAA,-0.165 ± 0.077
8,CTACGATC,-0.00343 ± 0.0069
9,CGGCGTAG,-0.142 ± 0.042
10,ACATTTAC,-0.01 ± 0.069
11,ACAATTGC,0.191 ± 0.044
12,ACCGGGTC,0.0499 ± 0.079
13,CTAAAGGC,0.0477 ± 0.0078
14,CGTTTTTA,-0.0355 ± 0.06
15,GGGCATAC,-0.246 ± 0.11
16,CCTAGTGA,0.157 ± 0.0087
17,ATTCAGAC,-0.195 ± 0.019
18,CTCTGTCA,0.105 ± 0.032
19,CCTTACCC,-0.182 ± 0.013
20,CATACGAG,-0.128 ± 0.04
21,AATACCCT,-0.0692 ± 0.063
22,CTTCTATA,-0.287 ± 0.067
23,GCGCAGGA,-0.0924 ± 0.067
24,AAAGCTTG,-0.122 ± 0.017
25,GGGTTCTA,0.00309 ± 0.029

row,Sequence,PBM E-score of 8-mer
1,AGTGAGGA,0.2286 ± 0.001
2,AAAAGCCC,-0.255 ± 0.028
3,AAGGTTGT,0.0754 ± 0.05
4,CCCGCACA,0.068 ± 0.063
5,TTAACTAA,-0.185 ± 0.0079
6,GCAAAGTA,-0.18 ± 0.015
7,TCCCCACA,0.168 ± 0.026
8,AACCTGGG,-0.0909 ± 0.015
9,AAATTCTA,-0.0773 ± 0.07
10,ACGGATCA,0.0425 ± 0.074
11,CCGGTATA,-0.152 ± 0.0044
12,GCTTTGCC,-0.119 ± 0.007
13,AGCGGCGA,0.015 ± 0.044
14,AGTCAATA,-0.25 ± 0.033
15,GCTTCCAA,-0.314 ± 0.015
16,CCCACCCG,0.105 ± 0.0088
17,AACTTCGT,-0.129 ± 0.026
18,GTTTTTGA,0.0403 ± 0.011
19,ATGTACTC,-0.188 ± 0.01
20,ACCCAATG,-0.152 ± 0.018
21,ACGGCATC,-0.172 ± 0.02
22,GTTGTGCA,0.0183 ± 0.032
